Screen size: about 310,000 compounds; about 14,000 (4.5%) showed an effect of 50% or more. Effects have a minus sign here. Some of the results follow.
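Note: peak tail current of the secondary pulse compared with the same well before compound.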

The target in this assay is human ether-à-go-go-related gene (hERG) potassium channel (human, UniProt Q12809). Description: primary screen, population patch clamp on CHO cells stably expressing hERG.
human ether-à-go-go-related gene (hERG) potassium channel, sequence (Q12809 whole entry, looked up): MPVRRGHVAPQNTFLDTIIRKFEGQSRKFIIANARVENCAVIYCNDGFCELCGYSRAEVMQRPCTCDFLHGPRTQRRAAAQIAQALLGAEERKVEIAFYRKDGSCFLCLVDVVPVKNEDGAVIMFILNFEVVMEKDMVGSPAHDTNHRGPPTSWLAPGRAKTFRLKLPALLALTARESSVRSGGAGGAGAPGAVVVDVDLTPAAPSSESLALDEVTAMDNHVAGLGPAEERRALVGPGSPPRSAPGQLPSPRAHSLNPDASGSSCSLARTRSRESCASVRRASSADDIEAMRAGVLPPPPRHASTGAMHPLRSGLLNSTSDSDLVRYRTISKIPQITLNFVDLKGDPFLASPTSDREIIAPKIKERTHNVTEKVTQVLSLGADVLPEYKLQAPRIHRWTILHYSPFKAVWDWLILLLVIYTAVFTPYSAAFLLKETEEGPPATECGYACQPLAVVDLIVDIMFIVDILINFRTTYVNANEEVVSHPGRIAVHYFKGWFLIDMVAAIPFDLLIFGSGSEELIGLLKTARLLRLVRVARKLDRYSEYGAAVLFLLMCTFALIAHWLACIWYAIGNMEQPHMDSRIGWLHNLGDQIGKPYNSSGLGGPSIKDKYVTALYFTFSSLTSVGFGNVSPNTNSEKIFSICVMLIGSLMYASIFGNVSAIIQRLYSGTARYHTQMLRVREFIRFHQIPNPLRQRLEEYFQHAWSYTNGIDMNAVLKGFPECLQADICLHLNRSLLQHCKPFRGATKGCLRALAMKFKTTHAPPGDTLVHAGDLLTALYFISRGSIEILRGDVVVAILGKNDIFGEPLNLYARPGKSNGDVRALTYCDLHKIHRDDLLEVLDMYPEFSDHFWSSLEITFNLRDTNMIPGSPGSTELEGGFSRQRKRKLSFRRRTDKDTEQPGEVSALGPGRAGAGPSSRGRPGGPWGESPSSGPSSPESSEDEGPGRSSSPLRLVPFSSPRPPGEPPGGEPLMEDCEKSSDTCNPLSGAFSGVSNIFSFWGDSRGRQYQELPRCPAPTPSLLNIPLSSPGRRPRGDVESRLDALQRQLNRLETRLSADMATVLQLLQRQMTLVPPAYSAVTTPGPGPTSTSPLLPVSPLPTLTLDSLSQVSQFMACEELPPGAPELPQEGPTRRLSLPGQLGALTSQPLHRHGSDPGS
Consider `COC(=O)c1sccc1NC(=O)c1cccc(F)c1`, for which the “hERG current change (%, negative = inhibition) at 10uM” value was -4.99%. Regarding `CCOC(=O)c1ccc(N2C(=O)C(O)=C(C(C)=O)C2c2ccccn2)cc1` (stereo not shown), the “hERG current change (%, negative = inhibition) at 10uM” value worked out at 6%. Turning to `NC(=Nc1ccc(N)cc1)C(N)=Nc1ccc(N)cc1`, the “hERG current change (%, negative = inhibition) at 10uM” value stood at 11.4%.

On to `Cc1cc(=O)oc2c3c(cc(OCC(=O)NCCCn4ccnc4)c12)OC(C)(C)CC3`, for which the “hERG current change (%, negative = inhibition) at 10uM” value is on record as -32.1%.

With `CCc1ccc(C(=O)COC(=O)c2cc([N+](=O)[O-])ccc2N2CCOCC2)cc1`, the “hERG current change (%, negative = inhibition) at 10uM” value is given as -9.49%.

Take `CC1CN(C2=Nc3cccc4cccc2c34)CC(C)O1` (stereo not shown): the “hERG current change (%, negative = inhibition) at 10uM” value is -47.6%. As for `C=C1C2C[C@H](O)C(C)(C)[C@@]2(O)[C@H](O)C[C@]23C[C@@](C)(O)[C@H](CC[C@H]12)[C@H]3OC(C)=O` (stereo partly shown), the “hERG current change (%, negative = inhibition) at 10uM” value is on record as 13.4%.

`O=C(NCC(O)COc1ccc([N+](=O)[O-])cc1)Nc1ccccc1` (stereo not shown): the “hERG current change (%, negative = inhibition) at 10uM” value was -49.4%. Turning to `Cc1cc(C)cc(C(=O)NCC(=O)N(C)CCOc2ccccc2)c1`, the “hERG current change (%, negative = inhibition) at 10uM” value is on record as -7.3%. In the case of `CCN(c1ccc(OC)cc1)S(=O)(=O)c1nnc(NC(=O)c2ccco2)s1` it was 17%; in that of `CS(=O)(=O)N(CC(=O)N1CCN(c2ccccc2)CC1)c1ccccc1Cl`, -3.11%; in that of `COc1cccc(/C=N/NC(=O)CC(C)O)c1OC/C=C/c1ccccc1` (stereo not shown), 6.7%. In the case of `COc1ccc(OC)c(N2C(=O)NC(=O)/C(=C\c3ccc([N+](=O)[O-])s3)C2=O)c1` it was 15.7%; in that of `O=C(CCCc1ccccc1)Nc1cccc(C(=O)O)c1`, 17.9%. The figure for `COc1ccc(S(=O)(=O)Nc2cccc(S(=O)(=O)N3CCCC3)c2)cc1OC` is -9.24%; for `O=C(c1ccc(CS(=O)(=O)c2ccc(Br)cc2)o1)N1CCCC1` it is -47.3%.

For the compound `Cc1ccc(NC(=O)Cn2nc(C)c([N+](=O)[O-])c2C)cc1C`, the “hERG current change (%, negative = inhibition) at 10uM” value worked out at 35.7%. With `O=C(Nc1ccccc1N1CCCCC1)c1ccc(Cl)c([N+](=O)[O-])c1`, the “hERG current change (%, negative = inhibition) at 10uM” value worked out at 5.3%. Regarding `O=C(O)c1c(Cl)c(Cl)c(Cl)c(Cl)c1C(=O)N1CCCCCC1`, the “hERG current change (%, negative = inhibition) at 10uM” value is given as 12.6%. The figure for `CCn1c(SCC(=O)Nc2cc(OC)ccc2OC)nnc1C1CCCCC1` is -13.5%.

Regarding `CCN(CC)NC(=O)Nc1ccccc1`, the “hERG current change (%, negative = inhibition) at 10uM” value is recorded as 11.4%. `c1ccc(OCCSc2ncnc3nc[nH]c23)cc1`: the “hERG current change (%, negative = inhibition) at 10uM” value is given as -7.82%.

Regarding `CCCCC1=CC2=CC(=O)C(C)(OC(=O)CC)C(=O)C2=CN1C(CO)CO` (stereo not shown), the “hERG current change (%, negative = inhibition) at 10uM” value is reported as 11.5%.

As to `O=c1c(-c2ccccc2)c(O)cc(-c2ccncc2)n1-c1ccc(Cl)cc1`, the “hERG current change (%, negative = inhibition) at 10uM” value turned out to be 25%. The figure for `C=CCn1c(SCC(=O)c2ccc(O)c(O)c2)nnc1-c1cccc(Cl)c1` is 3.69%; for `CC1(C)S[C@@H]2[C@H](NC(=O)Cc3ccccc3)C(=O)N2[C@H]1C(=O)[O-].[K+]` it is 4.46%. Consider `O=C(NCCc1ccc(Cl)cc1)c1cc(=O)[nH]c2ccccc12`, for which the “hERG current change (%, negative = inhibition) at 10uM” value came to 5.77%. In the case of `O=C(O)c1ccc(Nc2ccc([N+](=O)[O-])c3nonc23)cc1` it was 19.1%; in that of `CC1(C)CC(=O)C(C=Nc2ccc(O)cc2)=C(O)C1`, -4.92%.

As to `O.O=C(CCc1ccc(O)cc1)c1c(O)cc(O)cc1O[C@@H]1O[C@H](CO)[C@@H](O)[C@H](O)[C@H]1O`, the “hERG current change (%, negative = inhibition) at 10uM” value is 4.04%. As for `COc1ccccc1C(=O)Nc1ccc(C(=O)Nc2ccccc2C(=O)O)cc1`, the “hERG current change (%, negative = inhibition) at 10uM” value was found to be 21.8%.

Regarding `Cc1nn(C)cc1C1C(C#N)=C(N)N(c2ccc(F)c([N+](=O)[O-])c2)C2=C1C(=O)CCC2` (stereo not shown), the “hERG current change (%, negative = inhibition) at 10uM” value is listed as 11%. Turning to `COc1ccc(CC(=O)OCC(=O)NCCc2ccccc2)cc1OC`, the “hERG current change (%, negative = inhibition) at 10uM” value is listed as -6.19%. Turning to `O=C(O)CSCC(=O)Nc1ccc(Cl)cc1C(F)(F)F`, the “hERG current change (%, negative = inhibition) at 10uM” value stood at 6.24%.

`Cc1nn(CC(=O)Nc2cc(S(=O)(=O)N(C)C)ccc2Cl)c(C)c1[N+](=O)[O-]`: the “hERG current change (%, negative = inhibition) at 10uM” value was -20.9%. In the case of `CCCn1nnc(NC(=O)c2cccc(OCC(C)C)c2)n1`, the “hERG current change (%, negative = inhibition) at 10uM” value is recorded as -3.93%. The figure for `Cc1ccc(NC(=O)c2ccc(S(=O)(=O)N3CCOCC3)cc2)cc1` is 6.56%; for `CC1(C)CC(=O)c2sc(NC(=O)c3ccccc3)nc2C1` it is 2.82%; for `CN(CC(O)COc1ccc2ccccc2c1)C1CCCCC1.Cl` (stereo not shown) it is -45.2%.

Take `CCCCN(C(=O)c1cc(S(=O)(=O)N2CCCCCC2)ccc1OC)c1ccccc1`: the “hERG current change (%, negative = inhibition) at 10uM” value was -39%. In the case of `NC(=O)CSc1nnnn1-c1ccc(OC(F)(F)F)cc1` it was -14.4%; in that of `CCN(CCO)Cc1cc(=O)oc2c(C)c(C)ccc12`, -6.8%. For the compound `CSCCC(NS(=O)(=O)c1ccccc1F)C(=O)Nc1cccc(C)n1` (stereo not shown), the “hERG current change (%, negative = inhibition) at 10uM” value is on record as -0.755%. For `COC(=O)c1ccc2c(c1)C(C)(C)C(/C=C/c1ccccc1O)=[N+]2C.[I-]`, the “hERG current change (%, negative = inhibition) at 10uM” value is -69.5%. `CCOC(=O)N1CCN(c2c(NCCCN(C)c3ccccc3)c(=O)c2=O)CC1`: the “hERG current change (%, negative = inhibition) at 10uM” value is 1.44%. In the case of `COc1cc(SC)ccc1C(=O)N1CCCCCC1` it was 17.3%; in that of `O=C1/C(=C/c2cccc(Cl)c2)CSc2sccc21`, 10.1%; in that of `NS(=O)(=O)c1ccc(CNC(=O)c2cc(=O)[nH]c3ccccc23)cc1`, 18.3%. In the case of `CCc1ccc(NC(=O)CCC(=O)Nc2nnc(C(C)C)s2)cc1`, the “hERG current change (%, negative = inhibition) at 10uM” value worked out at 21.6%. The figure for `CCCC1(C(=O)OC)NC(c2ccco2)C2C(=O)N(C)C(=O)C21` (stereo not shown) is 8.64%; for `Cc1cccc(Cn2cnc3c(nnn3Cc3ccc(F)cc3)c2=O)c1` it is -10.6%. With `CN(Cc1cn(-c2ccccc2)nc1-c1cc2ccccc2o1)C(=O)CCC(=O)O`, the “hERG current change (%, negative = inhibition) at 10uM” value was 1.91%. In the case of `O=C(c1ccco1)N1CCN(Cc2cc(=O)c(OCc3c(F)cccc3Cl)co2)CC1` it was -58%. Consider `CCCCCC(=O)N(O)C1CC(=O)N(c2ccccc2)C1=O` (stereo not shown), for which the “hERG current change (%, negative = inhibition) at 10uM” value was 9.06%. In the case of `Cc1cccc(NC(=O)CC2C(=O)NCCN2C(=S)Nc2ccccc2)c1` (stereo not shown) it was 1.17%. Consider `Cc1ncc(CN2CCCC(C(=O)c3cccc(Cl)c3)C2)s1` (stereo not shown), for which the “hERG current change (%, negative = inhibition) at 10uM” value is listed as -13.6%.

Take `CCC(=O)N(CCC(Cc1ccccc1)c1ccco1)Cc1ccco1` (stereo not shown): the “hERG current change (%, negative = inhibition) at 10uM” value is -1.81%. For `CC(C)Cc1ccc(CN2CCCC(NC(=O)CCN3CCCO3)C2)cc1` (stereo not shown), the “hERG current change (%, negative = inhibition) at 10uM” value is reported as -43.4%. In the case of `Cc1ccc(C(=O)NCCNC(=O)c2ccco2)cn1` it was 16.4%; in that of `CSCCC(C(=O)N1CC2(C)CC1CC(C)(C)C2)N1C(=O)c2ccccc2C1=O` (stereo not shown), -24.8%. As for `C/C(CC(=O)Nc1ccc(Br)cc1)=N\NC(=O)c1cccc(O)c1`, the “hERG current change (%, negative = inhibition) at 10uM” value was -4.77%.

For the compound `CC(C)(C)NC(=O)NC(=O)CN1CCN(C(c2ccccc2)c2ccccc2)CC1`, the “hERG current change (%, negative = inhibition) at 10uM” value is -5.23%. `O=C(CN1C(=O)N/C(=C\c2ccccc2OCc2ccc(C(=O)O)cc2)C1=O)Nc1ccccc1F`: the “hERG current change (%, negative = inhibition) at 10uM” value is listed as -15.8%. In the case of `O=C(NCc1ccco1)Nc1ccc(OC(F)(F)F)cc1` it was -18%.

On to `CCC(=O)Nc1cccc(NC(=O)CN2CCN(c3ccccc3OC)CC2)c1`, for which the “hERG current change (%, negative = inhibition) at 10uM” value is listed as -1.45%. The figure for `COc1ccc(/C=C(\C#N)C(=O)OCC(=O)Nc2c(C)cccc2C)cc1` is 0.785%; for `Cc1ccc2sc(N(CCCN(C)C)C(=O)c3ccc(Br)s3)nc2c1C.Cl` it is -71.7%. As to `CCOCCCNC(=S)NCCCNc1nc2ccc(C)cc2cc1C#N`, the “hERG current change (%, negative = inhibition) at 10uM” value was 10.6%.

As to `CCOC(=O)N1CCN(C(=O)CSc2nc(=O)n3ccc(C)cc3n2)CC1`, the “hERG current change (%, negative = inhibition) at 10uM” value came out at 5.4%.

Consider `CN(C)CC#CCOCCOCCC#N`, for which the “hERG current change (%, negative = inhibition) at 10uM” value is recorded as 15.2%. The figure for `O=C(CO/N=C1\CCCc2nonc21)Nc1ccccc1Cl` is -10.4%.

Regarding `CCS(=O)(=O)c1nc(S(=O)(=O)c2ccc(C)cc2)c(N2CCCC(C)C2)s1` (stereo not shown), the “hERG current change (%, negative = inhibition) at 10uM” value is given as 2.07%.

Regarding `Cc1ccccc1-n1c(=O)cc(N2CCC3(CC2)OCCO3)[nH]c1=O`, the “hERG current change (%, negative = inhibition) at 10uM” value was 8.66%. Take `CC(C)C1CC(CCN)(Cc2ccccc2)CCO1.Cl` (stereo not shown): the “hERG current change (%, negative = inhibition) at 10uM” value amounted to 4.39%. On to `CN(C)/C(=N\OC(=O)c1ccccc1)c1nonc1N`, for which the “hERG current change (%, negative = inhibition) at 10uM” value is on record as 4.43%.

In the case of `Cc1ccccc1NS(=O)(=O)c1cc(C(=O)Nc2cccc([N+](=O)[O-])c2)ccc1C`, the “hERG current change (%, negative = inhibition) at 10uM” value is on record as -5.23%. For `COc1ccc(-c2noc(CCC(=O)NC3CCCC3)n2)cc1`, the “hERG current change (%, negative = inhibition) at 10uM” value is recorded as -4.15%. On to `CCc1nnc(NC(=O)CSc2nnc(-c3c[nH]c4ccccc34)n2CC)s1`, for which the “hERG current change (%, negative = inhibition) at 10uM” value is on record as -20.3%. In the case of `CCOC(=O)N1CCN(C(=O)C2CCN(CC3CCCCC3)CC2)CC1.O=C(O)C(=O)O` it was -0.91%. The figure for `Cc1ccccc1C1CC(=O)NC2=C1C(=O)CCC2` (stereo not shown) is 17.5%; for `CC(C)(C)c1ncc(S(=O)(=O)c2ccc(C(F)(F)F)cn2)c(N)n1` it is 3.41%; for `CC1CC(C)CN(CCCNC(=O)c2cc3c(s2)-c2ccccc2OC3)C1` (stereo not shown) it is -70.2%.

Turning to `N/C(=C\C(=O)c1cc(Cl)ccc1O)C(Cl)(Cl)Cl`, the “hERG current change (%, negative = inhibition) at 10uM” value was 2.52%.

`Cc1cc(C)c2oc(C(=O)N3CCN(C)CC3)cc(=O)c2c1`: the “hERG current change (%, negative = inhibition) at 10uM” value worked out at 5.93%. For `COc1ccc(C(=O)NC(=S)N2CCN(c3ccccc3OC)CC2)cc1`, the “hERG current change (%, negative = inhibition) at 10uM” value is reported as -21.6%. In the case of `C=CCNc1nc(-c2ccc(Cl)cc2)cs1` it was 0.699%. Regarding `Cc1nnc(SCc2cc(=O)[nH]c(/N=C(\N)Nc3ccccc3)n2)s1`, the “hERG current change (%, negative = inhibition) at 10uM” value is -10%. In the case of `COc1ccc(/C(CC2(O)C(=O)Nc3ccccc32)=N\O)cc1` (stereo not shown) it was 14.5%.
